Results reported in PubChem BioAssay (NCI).
A structure can be active in one record and inactive in another.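 Growth was measured after 48 h exposure to one concentration of compound in 96-well plates. Values under 10 count as active.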 Not every entry of the source has a single result; some have several. Only these are listed. An entry can have further records. These are repeated runs of one drug, at the concentration stated with the values; one value stands for one run. Signs of the kind (2×) count equal records among those shown.

How the values were obtained:
[1] = test system: MCF7 breast; assay: NCI-60 one-dose screen, 48 h (100 = growth as untreated, 0 = no growth, -100 = all killed); details: 2.5 mM
[2] = test system: HCT-116 colon; assay: as above; details: 2.5 mM

For O=c1[nH]cc(F)c(=O)[nH]1, the growth ([1]; runs of 1997) was “active: -81.2, 7.63, -8.78, -12.7, -18.4, 7, 4.46, 1.21, 5.52, 5.57, -68.5, -16.8, 6.63, 5.71, 9.57, -100, 7.7, -14, 7.58, 5.09, -14.8, 8.31, -12.6, 4.02, 1.71, 4.12, -11.8, -20.3, 9.43, -15.3, 1.37, 7.08, -23.5, -50, -63.6, -90.3, 8.73, -25.7, -0.37% and inactive: 10.2, 18.1, 18, 14.8, 87.4, 13.5, 25.8, 22.2, 10, 15.4, 10.9, 28.2, 13.4, 16.4, 17.8, 16.8, 13.9, 20.3, 80, 78.4, 33.9, 12, 14.7%”, the growth ([1]; runs of 1998) was “inactive: 95.9, 14.4, 25.2, 16.7, 15.4, 23.6, 16.4, 14.8, 10.2, 12.6, 13.9, 12.2, 14.7, 13, 12.7, 13.3, 27.6% and active: -27.5, -4.43, -4.75, -5.41, -5.74, -3.89, -70.2, -68.1 (2×), -71.3, -72.5, 5.42 (2×), 3.85 (2×), -2.42, -0.906, 8.33, 4.01, 4.94, 3.89, 7.78, 4.06, 5.68, 9.06 (2×), 4.49, 5.7, 8.63, 7.54, -4.63, -41.4, 5.39, 1.69, -15.5, -19.9, 3.54, 1.24, 7.15, 3.8, 9.24 (2×), 4.75, -0.743, -2.59, -11.1, 5.98, -2.94, 0.314, 3.93, 4.82, 2.05, 6.87, 4.72, 0.633%” and the growth ([1]; runs of 1999) was “active: -62, 7.84, 3.87, 0.0578, -60.1, 4.94, 9.55, 5.26, -2.75, 9.88, 3.71, 2.25, 2, 2.78 (2×), 6.5, 4.64, 0.375, 2.82, 6.81, 7.49, 3.11, 9.03, 3.96, 8.13, 4.44, 8.39, 4.8, 5.76, 6.62, -100 (2×), -4.62, 0.503, -72.6, 2.19, 6.59, 4.46, 5.88, 8.38, -79.6, -15, -86.2, -86.3, -80.2% and inactive: 12.4, 10.7, 10.1, 12, 11.3%”. The growth ([1]; runs of 2000) was “active: -84.3, 0.143, 1.04, -90.3%”, the growth ([2]; runs of 1991) was “active: 5.21, 4.57, -26.9, -68.3, -51.7, -50.6, -97.4, -98.6, -16.7, 1.09, -79.8, -71.7, -98.2, -25.4, -57.3, -56.7, -81.2, -96.8, -94%” and the growth ([2]; runs of 1992) was “active: -44 (2×), -81.6 (2×), -89.9 (2×), -73.7, -96.1, -95.9, -17.5, -77.9, -36, -70.2, -53.2, -85, -89.8, -100 (8×), -96.9 (2×), -96.6, 0.213, -80.1 (2×), -90.2, -73, -90.8, -66.4, -99.5, -51.1, -34.4, -81.7, -93.8, -94.5, -98.8, -91.3, -74.5, -46.9, -58.8, -43, -58.6, -86.3, -97.2, -16.3, -69.6 (2×), -97.8, -99.2, -62.5, -61.4, -23.9, -74.9, -57, -69.2, -87.4, -41.2, -94.4, -70.4 (2×), -46.1, -47.1, -32.8, -79.5, -78.2, -48.8, -53.4, -82.6, -99.6, -24.4, -76.8, -81.9, -99.3, -61.3, 2.57, -83.8, -80.3, -90.9, -68.9, -62.4, -42.6, -74.7, -49.2, -63.9, -98.7 (3×), -97.6, -25.6, -62.7, -92, -61, -21.7, -88, -71.4, 0.0884, -62.2, -51.9, 2.47, 2.64, -76.5, -21, -99.8, 1.33, -51.4, -12.6, -49% and inactive: 53.1%, 79.8%”. The growth ([2]; runs of 1993) was “active: -41, -38.8, -14.2, 2.22, 5.91, -98.1, -56, 0.395, -65.1, -41.3, -97.4, -82.3, 4.25, 1.25, -58.3, 2.07, 1.38, -58.9, -6.11, 3.84, -90.3, -95, -44.5, 3.02, -28.6, -33.2, -84.6, -42.7, -29.9, -80.9, 2.4, -75.3, -81.6, -37.9, -75.2, -78, -41.8, -49.3, -85, 1.44, -10.6, -63.9, -100, -48.6, -54% and inactive: 87.1%, 57.7%”, the growth ([2]; runs of 1994) was “active: -24.3, -9.16, -11.6, -43.6, -16.7, -74.6, -55.2, -8.22, -34.6, -22.1, -25.7, -29.9, -97.9, -18.7, -36.8, -60.7, 3.53, 1.79, -2.9, -84.9, 1.49, -63.8, -85.6, 0.3, -52.4, -34.9, -77.7, -23.9, -48.2, -100, -3.89, 2.94, -21.6% and inactive: 30.4%” and the growth ([2]; runs of 1995) was “active: 1.36, -97.3, 2.48, -6.97, -23.6, -39.7, -84.4, -71.5 (2×), -29.5, -96, -14.4, -25.8, -34.3, -86.8, 1.46, 7.28, -89.5, -95.2, -16.4, -72.9, -89.2, -75.6, -72.1, -40.9, -18.3, -40.8, -79.6, -41.7, 2.19, -95.5, -59.7, -60.9, -54.8, -54.5, -28.6, -68, -12.3, -11, -22.3%”. For the same compound, the growth ([2]; runs of 1996) was “active: -20.4, -65.3, -95.5, -71.9, -47.9, -97.1, -34.6 (2×), -28, -37.3, -77.5, -43.5, -16.7, -35.8, -61.4, -99.5, -93.1, 0.154, -35, -51.6, -77.8, 1.45, 4.34, -43.7, -13.8, -87.6, -49, 1.13, -2.99, 1.32, -30.3, -76.8, -74.7, -46.5, -2.16, 2.08, -9.79, -66.5, -66.8, -94.2, -86.9, -33.2, -60.5 (2×), -34, -13, -28.3, -1.33, 1.86, -28.6, 8.28, -70.4, -91.2, -58.5, -43, -33, -79.6% and inactive: 10.2%”, the growth ([2]; runs of 1997) was “active: -56.4, -22.6, -50.2, -50, -30.7, -48.8, -80.2, -59.8, -54.2, -77.2, -51 (2×), -25.3, -57.1, -73.6, -3.48, 1.39, -60.2, -11.2, -8.09, 4.18, -2.78, -26.2, -28.2, -34.8, -34.1, -80.5, -42.1, -40.2, -67.6, -13.7, -68, -55.3, 4.75, 4.21, -26.4, -76.4, -43.4, -41.4, -79.3, -89.1% and inactive: 20.6%” and the growth ([2]; runs of 1998) was “active: -95.7, -69.5, 3.02, -74.6, -10.7, 4.4, -89.3, -52.7, -20.4, -84.7, -100, -86, -0.744, -13, -6.2, -16.5, -42.5, -3.76, -99.7, -7.51, -68.9, -1.61, -83.2, -88.2% and inactive: 11.7%”.
